This is a selection; strong and weak results do not stand in their true shares. Effects have a minus sign here.
These compounds were tested against human ether-à-go-go-related gene (hERG) potassium channel (human, UniProt Q12809) (assay: primary screen, population patch clamp on CHO cells stably expressing hERG; higher = less effect of the substance).
In the case of `Cl.O.Oc1ccc2c3c1O[C@H]1[C@@H](O)CC[C@@]4(O)[C@@H](C2)N(CC2CCC2)CC[C@]314`, the “hERG current change (%, negative = inhibition) at 10uM” value is reported as -33.5%.
With `C(=C\c1ccccc1)/CN1CCN(C(c2ccccc2)c2ccccc2)CC1` the “hERG current change (%, negative = inhibition) at 10uM” value was -6.32%.
In the case of `Cl.Oc1ccc2c3c1O[C@H]1[C@@H](O)CC[C@@]4(O)[C@@H](C2)N(CC2CCC2)CC[C@]314`, the “hERG current change (%, negative = inhibition) at 10uM” value is reported as -3.74%.
For `Clc1ccc(COC(Cn2ccnc2)c2ccc(Cl)cc2Cl)c(Cl)c1.O=[N+]([O-])O` (stereo not shown), the “hERG current change (%, negative = inhibition) at 10uM” value was -12.1%.
In the case of `CN(C)CCN(Cc1cccs1)c1ccccn1.Cl`, the “hERG current change (%, negative = inhibition) at 10uM” value is reported as -72.7%.
`CNCC[C@@H](Oc1ccc(C(F)(F)F)cc1)c1ccccc1.Cl` was tested, and the “hERG current change (%, negative = inhibition) at 10uM” value was -48.1%.
`CCN(CC)CCOc1ccc(/C(=C(\Cl)c2ccccc2)c2ccccc2)cc1.O=C(O)CC(O)(CC(=O)O)C(=O)O` was tested, and the “hERG current change (%, negative = inhibition) at 10uM” value was 1.19%.
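Note: peak tail current of the secondary pulse compared with the same well before compound.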
